# Whole data set: some 4,500 sequences, median “median log2 fold change of GCK-ALFA target abundance (FLAG IP / Myc IP barcode read proportion)” near 0.078, cut for the lowest 2% near -0.6. Some of the results follow.
# B1: GBRAP_78_6707 (protein)
# chain: MVEEKLEEAIKELNKAAKLLVKEGTELANEALGELVDAITYLWEAIEEGADLKLLEEALKHLKKAIEIAKKLNVENKEEILKHLEKAKKLVEEAIKEVKK
# B2: GBRAP_184_5141 (protein)
# chain: TLLVRYIDAETVEEALAGARAAFEEAKAAGAKLTLFVDAEGLSVEEVAELARRLRALADELGLPDANIILEVTADEEEADRIIAAADAAGVRVVVALEEE
# B3: GBRAP_35_5620 (protein)
# chain: NIDEETVELALDVLRDAVEALEEGDAAALAPALVRIATAALDILTDEKDKVPNAAEYLKEFAALLDRAIAILAAHPELAAERAALEKIRAEVEALLKEVE
# B4: GBRAP_52_6324 (protein)
# chain: SSAKVQAYADALVAAIRAGDEAEARALAEKMVAELSPEEILEMARLVAEAIAGEDDEVHERAAEVFEYLADLVIEKKGDEETAAEILGIYATTLYAAEQA
# B5: GBRAP_160_4716 (protein)
# chain: AATAEKRIAFVDEEMAEARELVKGESIAQRAVILRGTGGEIIMELWEDPNASDELIDEVDAIIDAAVATLEANPDLTDAEIDALIAAARAAMKAAIKKHY
# B6: GBRAP_35_5563 (protein)
# chain: DFDETVAEMMANTVDALTEAVPDLDPATLLQITQQIMAAVKKVIEDIKNNKEALEKILKSLEKLRAAIEAQGLDDPNRQAALAAVEEAIKLAKKAIKEAK
# B7: GBRAP_52_5945 (protein)
# chain: SEAKVRALAEAFVEAAAAGDEEKAREILLEAAKTLNDEEWDLFADALAELLATADLETIERVLEIILENEDELEKLGVSEEQIGRLEAAAATAGLAALQA
# B8: GBRAP_43_5754 (protein)
# chain: MKELIEGSIDFALLAAESPEISEEQKLKIIKDVFDIVADEGIDLKEELLKLVEAAAKSLSKEQLEELLKHAKELAEKYPELKEMFEEAAKILKEAIEKLK
# Molecular target: GABARAP, O95166
# Sequence (O95166 whole entry, the tested form may be a part): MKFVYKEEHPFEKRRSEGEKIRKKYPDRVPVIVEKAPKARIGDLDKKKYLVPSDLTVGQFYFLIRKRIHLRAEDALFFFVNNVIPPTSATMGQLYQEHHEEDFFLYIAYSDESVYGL
# Test: median log2 fold change of GCK-ALFA target abundance (FLAG IP / Myc IP barcode read proportion) (log2 ratio); each designed protein is fused to an ALFA-tag nanobody in HEK293 cells to bring the named protein to FLAG-tagged glucokinase (GCK); Myc marks an untargeted standard; higher = target protein stabilised (more abundant)
# Settings: target protein: 3xFLAG-MCP-GCK-ALFA reporter; HEK293 landing pad (RPLP)
# Procedure, shortened: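 Sequencing of reverse-transcribed, amplified circular RNA barcodes from anti-FLAG and anti-Myc immunoprecipitates provided the readout for an ALFA-nanobody-fused binder library recombined into HEK293 landing-pad cells. Those cells were induced with 2 μg mL^−1 doxycycline, transfected with a plasmid expressing a FLAG-tagged target and a Myc-tagged standard, and lysed after 48 h. Target abundance is the per-binder median log2 ratio of FLAG to Myc barcode read proportions. Only barcodes at a proportion of ≥10^−7 in both replicates and binders with ≥3 barcodes per replicate were kept, with a 10^−6 pseudocount added before the two replicates were pooled.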
row,Binder,median log2 fold change
1,B1,-0.319
2,B2,0.11
3,B3,-0.325
4,B4,0.119
5,B5,-0.524
6,B6,-0.166
7,B7,-0.137
8,B8,0.274
